About 6,000 (1.7%) of roughly 360,000 compounds were called active. The inconclusive results got no clear call from the source; some entries with a clear call stand among them for comparison. Calls come from the whole dose curve; as a rule, active = well fitted cell-killing curve with a large enough effect; inconclusive = small, poorly fitted or top-dose-only effect, or effect the other way; inactive = flat fitted curve, though single readings scatter. No potency is given beside an inconclusive call; the fits are too rough.
Assay: qHTS for induction of synthetic lethality in tumor cells producing 2HG: qHTS for the HT-1080-NT fibrosarcoma cell line;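 note: NT is the 2HG producing partner of a matched IDH1 knockdown line; nearly all actives have a fitted effect of over 55% in size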;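 for activity, negative = less viability: 0% = DMSO-treated cells and -100% = media-only wells without cells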
Conditions: HT-1080-NT fibrosarcoma viability, CellTiter-Glo ATP luminescence, 48 h; activity, negative = less viability: at 46.1 µM (top of the series) unless noted
Method in brief: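 Fibrosarcoma NT cells, 750 per well in 5% FBS RPMI, were exposed to compound for 48 hours. Viability: CellTiter-Glo luminescence.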
Potency is the fitted concentration of half-maximal effect; tags give direction and shape of the fitted curve.

Row | Structure (SMILES) | activity, negative = less viability | Potency
1 | CC1CCCC(C)N1C(=O)CN1C(=O)NC2(CCCCCC2)C1=O (stereo unspecified) | inactive: 6.1% | –
2 | CCOc1ccc(OCc2cccc(C(=O)O)c2)cc1 | – | active: 7.94 µM
3 | COc1ccc(CC(N)c2csc(NC(=O)c3ccccc3OC)n2)cc1 (stereo unspecified) | – | inconclusive [cytotoxic, single point]
4 | Cc1cc(C)c2c(CN3CCN(C/C=C/c4ccccc4)CC3)cc(=O)oc2c1 | – | inconclusive [cytotoxic, single point]
5 | CCN1C(=O)C(CC(=O)Nc2ccc(F)cc2)N(CCCN2CCN(c3ccc(F)cc3)CC2)C1=S (stereo unspecified) | – | active: 29.1 µM
6 | O=C(Nc1ccn(CCCNC2CCN(Cc3ccccc3)CC2)c(=O)n1)OCc1ccccc1 | – | inconclusive [cytotoxic, single point]
7 | OCCCn1c(-c2ccccc2)nc(=S)c2c1CCCC2 | inactive: -5.19% | –
8 | Cc1ccc(NC(=O)CN(C)C(=O)CCOc2ccccc2C)cc1 | – | inconclusive [rising, single point]
9 | COc1ccc(OC)c(NC(=O)COc2coc(CN3CCc4ccccc43)cc2=O)c1 | inactive: -7.35% | –
10 | COc1ccc(OC)c(NC(=O)COC(=O)c2c3c(nc4ccccc24)CCCC3)c1 | – | inconclusive [cytotoxic, single point]
11 | COCCCn1cc(C(=O)c2cc(OC)ccc2OCC(=O)Nc2cc(C)on2)cc(C#N)c1=O | inactive: -4.53% | –
12 | CCOc1ccc(C(C(=O)NC2CCCCC2)N(C(=O)Cc2cccs2)c2ccc(-n3cnnn3)c(OC)c2)cc1 (stereo unspecified) | – | inconclusive [cytotoxic, single point]
13 | COc1ccc2sc(-c3ccc(S(C)(=O)=O)cc3)c(C#CCO)c2c1 | – | inconclusive [cytotoxic, partial curve]
14 | O=c1c2ccccc2nc(-c2ccco2)n1CCCn1ccnc1 | inactive: -0.471% | –
15 | COc1ccccc1-n1cnnc1SCC(=O)Nc1cc(C)on1 | – | inconclusive [cytotoxic, partial curve]
16 | CC1(C(=O)NS(=O)(=O)c2ccccc2)CCN1C(=O)C1CCCCC1 (stereo unspecified) | – | inconclusive [rising, single point]
17 | Cc1ccc(-n2c(O)c(/C=N/Nc3ccc(S(=O)(=O)N4CCOCC4)cc3[N+](=O)[O-])c3ccccc3c2=O)c(C)c1 | – | active: 11.6 µM
18 | Cc1noc(/C=C/Nc2ccc(F)cc2F)c1[N+](=O)[O-] | – | inconclusive [cytotoxic, single point]
19 | O=C(c1ccco1)N1CCN(C(=O)N2c3ccccc3Sc3ccccc32)CC1 | – | inconclusive [cytotoxic, full curve, poor fit]
20 | Nc1ccc(-c2ccc(N)cc2C(F)(F)F)c(C(F)(F)F)c1 | – | inconclusive [cytotoxic, single point]
21 | CCCCN(Cc1ccc(Cl)c(Cl)c1)c1ccc(Br)cn1 | inactive: 8.53% | –
22 | CCCN1CNc2c(c(=O)[nH]c(=S)n2CCc2cc(C)cc(C)c2)C1 | – | inconclusive [cytotoxic, single point]
23 | CCc1ccc(NC(=O)CSC2=C(C#N)C(c3ccc4c(c3)OCO4)CC(=O)N2)cc1 (stereo unspecified) | – | inconclusive [cytotoxic, single point]
24 | C[C@@H]1CN([C@@H](C)CO)C(=O)c2cc(NC(=O)Nc3ccc(F)cc3)ccc2O[C@@H]1CN(C)Cc1ccc(Oc2ccccc2)cc1 | – | inconclusive [cytotoxic, single point]

Row | Structure (SMILES) | activity, negative = less viability | Potency
25 | Cc1ccc(CNC(=O)C2CCCN(S(=O)(=O)N3CC(C)CC(C)C3)C2)cc1 (stereo unspecified) | inconclusive: 2.95% | –
26 | CCCNC(=O)c1ccc(S(=O)(=O)c2ccc(OC)cc2)c([N+](=O)[O-])c1 | – | inconclusive [cytotoxic, partial curve]
27 | CCCS(=O)(=O)N1CCCC(C(=O)N2CCN(C(=O)OCC)CC2)C1 (stereo unspecified) | inactive: 13.8% | –
28 | OC(Cc1ccccc1Br)c1ncc(-c2cccc(C(F)(F)F)c2)[nH]1 (stereo unspecified) | – | inconclusive [cytotoxic, single point]
29 | O=S(=O)(NC1CCCC1)c1ccc(S(=O)(=O)N2CCc3ccccc32)cc1 | – | inconclusive [cytotoxic, single point]
30 | COc1ccc(C2(c3ccc(OC)cc3)NC(=O)N(Cn3nnc4ccccc4c3=O)C2=O)cc1 | inactive: -16% | –
31 | Cc1nc2ccccc2n1C1CCN(CC(=O)Nc2ccccc2Br)CC1 | inconclusive: -33.2% [cytotoxic] | –
32 | Cc1cccc(OCC(=O)NCCCNC(=O)c2cnccn2)c1 | inactive: -5.34% | –
33 | COc1ccc(-c2cc(=O)n(-c3ccc([N+](=O)[O-])cc3)[nH]2)cc1 | – | inconclusive [cytotoxic, partial curve]
34 | Fc1ccc(NC(=S)N2CCCN(c3ccc(C(F)(F)F)cn3)CC2)c(F)c1 | – | active: 23.1 µM
35 | CCOc1ccc(N2CC(C(=O)Nc3nnc(CC)s3)CC2=O)cc1 (stereo unspecified) | inactive: -8.82% | –
36 | O=C(O)c1ccccc1-c1ccccc1C(=O)NCc1ccccc1Cl | inactive: 2.04% | –
37 | O=C(NCc1ccccc1)C(c1ccccc1)N(C(=O)c1csnn1)C1CCCC1 (stereo unspecified) | inactive: -2.22% | –
38 | COc1ccc(C2C(=O)N(C3CCCCC3)CC(=O)N2Cc2ccc3c(c2)OCO3)cc1 (stereo unspecified) | inactive: -10.8% | –
39 | O=C(COc1ccc(Cl)cc1)N1CCN(c2cccc(C(F)(F)F)c2)CC1 | – | inconclusive [cytotoxic, single point]
40 | CC(C)c1ccc(-c2csc(NC(=O)c3cccs3)c2C(=O)O)cc1 | – | inconclusive [cytotoxic, single point]
41 | NC(Cc1ccc(Cl)cc1)c1csc(Nc2cc(NCCCO)ncn2)n1 (stereo unspecified) | – | inconclusive [cytotoxic, single point]
42 | O=C(CSc1ncnc2ccccc12)c1ccc2c(c1)OCCO2 | – | inconclusive [cytotoxic, single point]
43 | CC(C)C[C@H]1CN=C(Nc2ccccc2)N1CCCC1CCCC1 | – | inconclusive [cytotoxic, single point]
44 | COc1ccc(C(=O)NC2CCCN(Cc3ccc(Cl)cc3)C2)c(OC)c1 (stereo unspecified) | – | inconclusive [cytotoxic, single point]
45 | Cc1nc2ccccn2c1C(=O)C(=O)Nc1cc(F)ccc1F | inconclusive: 36.7% | –
46 | C[C@H]1CN([C@@H](C)CO)C(=O)Cc2cc(NC(=O)CCC(F)(F)F)ccc2O[C@H]1CN(C)S(=O)(=O)c1ccc(Cl)cc1 | – | active: 3.66 µM
47 | Cc1cc(S(=O)(=O)Nc2ccc3c(c2)n(C)c(=O)n3C)ccc1F | inactive: -1.03% | –
48 | Cn1c2ccc(F)cc2c2ncn(CCCN(CCO)CCO)c(=O)c21 | – | inconclusive [cytotoxic, single point]

Row | Structure (SMILES) | activity, negative = less viability | Potency
49 | Cc1ccc(-n2ncc(C(=O)NCC3CCN(C4CCCC4)C3)c2C2CCN(C(=O)OC(C)(C)C)CC2)cc1 (stereo unspecified) | – | active: 23.1 µM
50 | C=C(C(=O)c1ccccc1)C(NC(C)(C)C)c1ccccc1 (stereo unspecified) | – | active: 6.51 µM
51 | CCC(=O)NC(c1ccc(OC)c(OC)c1)c1cc(Cl)c2cccnc2c1O (stereo unspecified) | – | inconclusive [cytotoxic, full curve]
52 | COc1ccc(-n2c(SCCC#N)nnc2-c2cc(Cl)ccc2OC)cc1Cl | – | inconclusive [cytotoxic, single point]
53 | Cc1ccc(CSc2nc3sc(C)c(C)c3c(=O)n2Cc2ccco2)cc1 | inactive: 6.43% | –
54 | CC(CCN1CCC(CN2C(=O)C(=O)NC[C@@H]2Cc2ccccc2)CC1)c1ccccc1 (stereo partly specified) | inactive: 4.86% | –
55 | O=C(CSc1ncnc2c1oc1ccccc12)Nc1cccc(C(F)(F)F)c1 | – | inconclusive [cytotoxic, single point]
56 | Cc1ccc2nc(-c3ccc(NC(=O)c4ccco4)cc3)[nH]c2c1 | – | inconclusive [cytotoxic, single point]
57 | CCN(Cc1nc2ccccc2c(=O)[nH]1)C(=O)c1cc(C2CC2)nn1-c1ccccc1 | inactive: -0.81% | –
58 | CC(C)CC(=O)Nc1ccc(-c2cn3ccsc3n2)cc1 | – | inconclusive [cytotoxic, single point]
59 | O=C(CSC1=NNC(c2ccccn2)S1)Nc1ccc(C(F)(F)F)cc1 (stereo unspecified) | – | active: 14.6 µM
60 | COC(=O)CCC(=O)NNC(=O)C1CC1(c1ccccc1)c1ccccc1 (stereo unspecified) | inactive: 5.73% | –
61 | Cc1ccc(-c2csc(Nc3ccccn3)n2)cc1 | – | inconclusive [cytotoxic, single point]
62 | CN(Cc1ccccc1)Cc1c(O)ccc2ccccc12 | inactive: 3.01% | –
63 | COCCC(=O)N1CCOCC1c1cc(C(=O)NCc2ccccc2)no1 (stereo unspecified) | – | inconclusive [rising, single point]
64 | CC(=Nc1ccccc1)C1=C(O)C(Cc2ccc(F)cc2)NC1=O (stereo unspecified) | – | active: 2.59 µM
65 | COc1ccc2sc(-c3ccc(SC)cc3)c(C#CCO)c2c1 | – | inconclusive [cytotoxic, single point]
66 | Cc1nc2c(nc1C)C(=O)c1ccccc1C2=O | – | inconclusive [cytotoxic, single point]
67 | O=C(/C=C/c1ccc([N+](=O)[O-])s1)N1CCCC1 | – | inconclusive [cytotoxic, single point]
68 | Cc1ccc(N(CC2CO2)S(=O)(=O)c2ccc([N+](=O)[O-])cc2)cc1 (stereo unspecified) | – | inconclusive [cytotoxic, single point]
69 | COc1ccc(CCNC(=O)Nc2nc(C(N)CCc3ccccc3)cs2)cc1OC (stereo unspecified) | – | active: 16.4 µM
70 | CCc1nc2ccc(C(=O)Nc3cccc(OCC(=O)N(C)C)c3)cn2c1N(C)Cc1cc2ccccc2s1 | – | inconclusive [cytotoxic, single point]
71 | Cc1ccc(/C=N/Nc2nc3ccccc3s2)o1 | inactive: -7.5% | –
